Test results published in patent US20220024991A1 (GENOME PROTECTION, published 2022).
Numbering of substitutions follows the chain as printed. Names and notes keep the numbering of the source.

B1: TEM2492DG (ligand)
chain: MHHHHHHSGLRINSAKDDAAGQAIANRFTSNIKGLTQASRNAADGISIAQTTEGALNEINNNLQRVRELSVQATAGANADAALKAIQAEIQQRLEEIDRVSQQTQAAAVKVLSQDNAMAIQVGANDGAAITIDLQKIDVKSLGLDGFNVNSPGSTANPLASIDSALSKVDAVRSSLGAIQNRFDSAITNLGNTVTNLNSARSRIEDADYATEVSQMSKAQILQQAGDSVLAQG
B2: 33TXH (ligand)
chain: MLVPRGSHHHHHHSGLRINSAKDDAAGQAAANRATSNIKGLTQASRNAADGISIAQTTEGALNEINNNLQRVRELSVQATAGANADAALKAIQAEIQQRLEEIDRVSQQTQAAAVKVLSQDNAMAIQVGANDGAAITIDLQKIDVKSLGLDGFNVNSPGSTANPLASIDSALSKVDAVRSSLGAIQNRFDSAITNLGNTVTNLNSARSRIEDADYATEVSQMSKAQILDQAGTSTLAQANQVPQNVLSLLR
B3: TEM1-AD (ligand)
chain: MSGLRINSAKDDAAGQAIANRADSNIKGLTQASRNAADGISIAQTTEGALNEINNNLQRVRELSVQATAGANADAALKAIQAEIQQRLEEIDRVSQQTQAAAVKVLSQDNAMAIQVGANDGAAITIDLQKIDVKSLGLDGFNVNSPGSTANPLASIDSALSKVDAVRSSLGAIQNRFDSAITNLGNTVTNLNSARSRIEDADYATEVSQMSKAQILQQAGTSVLAQANQVPQNVLSLLVPRGSHHHHHHG
B4: TEM1-DD (ligand)
chain: B3 chain with A22F, S24D
B5: TEM1-53A (ligand)
chain: B3 chain with D23T
B6: TEM2-AND (ligand)
chain: B3 chain with A22F, D23T, I215A, L216N, L224D
B7: TEM1-TD (ligand)
chain: B3 chain with A22T
B8: TEM2-ANT (ligand)
chain: B3 chain with A22F, D23T, I215A, L216N, V223T
B9: 33MX (ligand)
chain: B3 chain with A22F, D23T
B10: TEM2-480A (ligand)
chain: B3 chain with A22F, D23T, I215A
B11: TEM1-SD (ligand)
chain: B3 chain with A22S
B12: TEM3-TA (ligand)
chain: B3 chain with A22F, D23T, V234T, L235A
B13: TEM1-58E (ligand)
chain: B3 chain with A22F, D23T, K27E
B14: TEM2-ADD (ligand)
chain: B3 chain with A22F, D23T, I215A, L216D, L224D
B15: TEM1-49A (ligand)
chain: B3 chain with I18A, A22F, D23T
B16: TEM2-481A (ligand)
chain: B3 chain with A22F, D23T, L216A
B17: TEM1-49E (ligand)
chain: B3 chain with I18E, A22F, D23T
B18: TEM3-AS (ligand)
chain: B3 chain with A22F, D23T, V234A, L235S
B19: TEM1-49T (ligand)
chain: B3 chain with I18T, A22F, D23T
B20: TEM2-AST (ligand)
chain: B3 chain with A22F, D23T, I215A, L216S, V223T
B21: TEM2-488T (ligand)
chain: B3 chain with A22F, D23T, V223T
B22: TEM2-ASD (ligand)
chain: B3 chain with A22F, D23T, I215A, L216S, L224D
B23: TEM1-54D (ligand)
chain: B3 chain with A22F
B24: TEM2-ADT (ligand)
chain: B3 chain with A22F, D23T, I215A, L216D, V223T
B25: TEM2-481D (ligand)
chain: MHHHHHHSGLRINSAKDDAAGQAIANRFTSNIKGLTQASRNAADGISIAQTTEGALNEINNNLQRVRELSVQATAGANADAALKAIQAEIQQRLEEIDRVSQQTQAAAVKVLSQDNAMAIQVGANDGAAITIDLQKIDVKSLGLDGFNVNSPGSTANPLASIDSALSKVDAVRSSLGAIQNRFDSAITNLGNTVTNLNSARSRIEDADYATEVSQMSKAQIDQQAGTSVLAQANQVPQNVLSLLR
B26: 33TEMX (ligand)
chain: B25 chain with I24A, F28A, D222L, Q223D, V229T
B27: TEM2-481H (ligand)
chain: B25 chain with D222H
B28: TEM2-D6D (ligand)
chain: B25 chain with D222L, Q223D, T227D
B29: TEM2-K1D (ligand)
chain: B25 chain with I221K
B30: TEM2-486D (ligand)
chain: B25 chain with D222L, T227D
B31: TEM2-482D (ligand)
chain: B25 chain with D222L, Q223D
B32: 33TXT (ligand)
chain: MHHHHHHLVPRGSGLRINSAKDDAAGQAAANRATSNIKGLTQASRNAADGISIAQTTEGALNEINNNLQRVRELSVQATAGANADAALKAIQAEIQQRLEEIDRVSQQTQAAAVKVLSQDNAMAIQVGANDGAAITIDLQKIDVKSLGLDGFNVNSPGSTANPLASIDSALSKVDAVRSSLGAIQNRFDSAITNLGNTVTNLNSARSRIEDADYATEVSQMSKAQILDQAGTSTLAQANQVPQNVLSLLR
B33: 33TXL (ligand)
chain: B32 chain with L8G, V9S
B34: 33TX3 (ligand)
chain: B32 chain with L8A, V9A
B35: 33TX2 (ligand)
chain: B32 chain with L8A

Assays:
[1] = target: T1, human TLR5 (293-hTLR5-LacZ reporter cells) (human, UniProt O60602 21-858); test: cell-based or functional assay
[2] = target: T1, human TLR5 (293-hTLR5-LacZ reporter …); test: cell-based or functional assay; remark: listed apart in the source

T1 sequence (O60602 21-858): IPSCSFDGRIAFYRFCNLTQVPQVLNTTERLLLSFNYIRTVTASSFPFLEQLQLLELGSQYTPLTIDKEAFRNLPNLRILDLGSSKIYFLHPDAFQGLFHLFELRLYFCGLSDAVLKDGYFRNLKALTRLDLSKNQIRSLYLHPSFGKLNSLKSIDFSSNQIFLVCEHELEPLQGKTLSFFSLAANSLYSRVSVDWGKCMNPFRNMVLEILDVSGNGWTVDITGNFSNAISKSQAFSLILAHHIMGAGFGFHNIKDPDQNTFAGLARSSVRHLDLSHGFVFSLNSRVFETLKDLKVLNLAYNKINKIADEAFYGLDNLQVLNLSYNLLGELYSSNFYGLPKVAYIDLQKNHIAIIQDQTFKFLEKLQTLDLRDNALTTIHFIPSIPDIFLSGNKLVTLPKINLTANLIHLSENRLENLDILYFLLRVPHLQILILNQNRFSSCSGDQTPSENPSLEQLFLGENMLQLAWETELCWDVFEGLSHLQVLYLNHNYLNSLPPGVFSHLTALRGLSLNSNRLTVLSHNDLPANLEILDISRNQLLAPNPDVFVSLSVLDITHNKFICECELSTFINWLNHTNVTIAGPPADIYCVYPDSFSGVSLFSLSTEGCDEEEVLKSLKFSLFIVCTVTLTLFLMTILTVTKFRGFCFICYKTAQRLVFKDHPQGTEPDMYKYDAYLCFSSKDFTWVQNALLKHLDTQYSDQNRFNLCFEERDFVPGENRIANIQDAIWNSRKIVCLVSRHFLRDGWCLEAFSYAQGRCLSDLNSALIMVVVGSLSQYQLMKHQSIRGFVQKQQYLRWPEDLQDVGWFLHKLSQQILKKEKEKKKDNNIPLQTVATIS

Binder | EC50 [1] [ng/mL] | EC59(TEM)/EC50(33MX) [1] [ratio] | also measured
B1 | > 2.5 | – | –
B2 | 0.62 | 11.4 | –
B3 | 0.089 | 2.8 | –
B4 | 0.171 | 4 | –
B5 | 0.112 | 1.4 | –
B6 | > 10 | – | –
B7 | 0.148 | 3.2 | –
B8 | > 10 | – | –
B9 | – | – | EC50, ng/ml (NF-κB reporter enzyme activity) [2]: 0.043 ng/mL; EC50, pM (NF-κB reporter enzyme activity) [2]: 1.63 pM; Mut. EC50/EC50 CBLB502 [2]: 1.78 ratio
B10 | 0.662 | 7.5 | –
B11 | 0.117 | 2.8 | –
B12 | 0.391 | 8.3 | –
B13 | 0.181 | 2 | –
B14 | > 10 | – | –
B15 | 0.113 | 1.4 | –
B16 | 0.836 | 9.7 | –
B17 | 0.147 | 1.6 | –
B18 | 0.397 | 9.1 | –

Binder | EC50 [1] [ng/mL] | EC59(TEM)/EC50(33MX) [1] [ratio] | also measured
B19 | 0.137 | 1.5 | –
B20 | > 10 | – | –
B21 | 0.103 | 1.2 | –
B22 | > 10 | – | –
B23 | 0.146 | 1.7 | –
B24 | > 10 | – | –
B25 | > 10 | – | –
B26 | 0.686 | 10.4 | –
B27 | > 10 | – | –
B28 | > 2.5 | – | –
B29 | > 10 | – | –
B30 | 0.479 | 6.3 | –
B31 | 0.441 | 5.8 | –
B32 | 0.091 | 1.4 | –
B33 | 0.533 | 9.9 | –
B34 | 0.473 | 8.8 | –
B35 | 0.254 | 4.7 | EC50, ng/ml (NF-κB reporter enzyme activity) [2]: 0.137 ng/mL; EC50, pM (NF-κB reporter enzyme activity) [2]: 5.46 pM; Mut. EC50/EC50 33MX [2]: 3.34 ratio; Mut. EC50/EC50 CBLB502 [2]: 5.94 ratio
